The supplement of paper PMC11383711
The other results are listed elsewhere or left out. Binding of human antibodies (heavy:light variable regions, tested as scFv in one mRNA-display pool) to influenza hemagglutinin, with or without the stem antibody CR9114 bound first. Score = (mean enrichment − median) / interquartile range of that screen; higher = more enriched, 0 = typical non-binder. Active = above the paper's cut-off per screen: stems 28; unblocked H1 Solomon Islands 5, H1 Michigan 3, H3 5, H5 19, H7 2.85, both B 5; blocked 9, 7, H5 10, H7 10, B Phuket 10, B Lee 11.5. Scores are scaled within each screen and are no affinities; replicates correlate at about 0.6 to 0.9, and antibodies rare in the pool are noisier.

B1: C8-A06 (protein)
chain 1: VQLVQSGVEVKKPGASVKVSCKTSGYTFTSFDIDWVRQAPGQGLEWMGWMNPNSGTTGYAQKFQGRVTMTRNTSISTAYMELSSLRSDDTAVYYCARGKSTITTYWFDPWGQGTLVTVSS
chain 2: DIVMTQSPDSLAVSLGERATINCKSSQTVLSNSNNENYLTWYQQKPGQPPRLLIYWASTRESGVPDRFTGSGSGTDFTLTISSLQAEDVAVYYCQQYYSNPYTFGQGTKVEIK
B2: C1-2-2D06 (protein)
chain 1: VQLQESGPGLVKPSETLSLTCTVSDYFINNGYYWAWIRQAPGKGLEWIGSIYHSGSTFYNPSLKSRVTISVDTSENQISLRLRSVTAADSAVYYCARQSIYTGNHFPKFDPWGQGTLVTVSS
chain 2: AIQLTQSPSSLSASVGDRVTITCRASQGISSALAWYQQKPGKTPKLLIYDTSNLESGVPSRFSGSGSGTDFTLTISSLQPEDFATYYCQQFNSYPPEVTFGGGTKVEIK
B3: 045-09-1G05 (protein)
chain 1: QVQLQESGPGLVKPSQTLSLTCAVSGDSISSGIYFWSWIRQPPGQGLEWIGRVFKTGTTDYNTSLKSRVTISVDTSKNQFSLKVSSATAADTALYYCARETPADRPYCGSGSCSFDSWGQGILVTVSS
chain 2: DIQMTQSPSSLSASVGDRVTITCRASQNINNNLNWYQQKSGKAPKFLIYAASHLQDGVPSRFSGGGSGTDFTLTIASLQPEDFATYYCQQSFTTLGSTFGQGTKVEIK
B4: R95-1E04 (protein)
chain 1: EVQLVESGGGLVQPGRSLRLSCAASGFSFVDYDMHWVRQAPGKGLEWVSSIRWNSGGIAYADSVKGRFTISRDNAKNSLYLQMNSLRAEDTAFYYCARTEAATVFGDHYSYYYYMDVWGKGTTVTVSS
chain 2: DIVMTQSPDSLAVSLGERATINCKSSQSLFYNSNNKNYFAWYQQKPGQPPKLLIYWASTRESGVPDRFSGSGSGTDFTLTISSLQAEDVAVYYCQQYYTTPLTFGGGTKVEIK
B5: SFV015-1F04 (protein)
chain 1: QVQLVESGGGVVQPGRSLRLSCTASGIIFSNYAMHWVRQAPGKGLEWVAVISYDGYIPYYTDSVQGRFIISRDNSKNTLYLEMNSLRAEDTAFYFCARDKYRDGDRLDYYYYMDLWGQGTTVTVSS
chain 2: EIVLTQSPVTLSLSPGERATLSCRASQSVSNYLAWYQQTPGQPPRLLIYDASHRATGIPTRFSGAVSGTDFTLTISSLEPEDFAVYYCQLRSNWPPLFTFGPGTKVDIK
B6: 042-10-4C01 (protein)
chain 1: QVQLVESGGGVVQPGRSLRLSCPASGFSFTTYGMHWVRQAPGKGLEWVAVISYDGRHQYYGDSVKGRFSISRDKSKNILFLQMNSLRAEDTAVYYCARDFTGYFGMDVWGQGTTVTVSS
chain 2: QSVLTQPPSASATPGQRVTISCSGSSSNVGKASVSWYRQLPGAAPKLLMYNTNQRPSGVPDRFSGSKSGTTASLAISGLQSEDEADYYCGAWDDSRNGFYVFGTGTKVTVL

target: Influenza A H1N1 A/Michigan/45/2015 hemagglutinin ectodomain; assay: mRNA display binding score; higher = more enriched on the antigen; settings: antigen blocked with: 2 µM CR9114 IgG
Method: (§1)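 A pool of natively paired antibodies, displayed as scFv on mRNA, was selected once on antigen-coated beads and sequenced before and after; two replicates.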

Row | Binder | mRNA display binding score
1 | B1 | inactive: -0.135
2 | B2 | inactive: -0.214
3 | B3 | active: 51.2
4 | B4 | inactive: -0.274
5 | B5 | inactive: -0.123
6 | B6 | inactive: -0.0767

same assay, conditions: antigen blocked with: nothing

Row | Binder | mRNA display binding score
7 | B1 | inactive: 0.271
8 | B2 | inactive: -0.465
9 | B3 | active: 3.41
10 | B4 | inactive: 0.461
11 | B5 | inactive: 2.07
12 | B6 | inactive: -0.0404

target: Influenza A H1N1 A/Solomon Islands/3/2006 hemagglutinin ectodomain; assay: as above; settings: antigen blocked with: 2 µM CR9114 IgG
Method: as §1

Row | Binder | mRNA display binding score
13 | B1 | inactive: -0.317
14 | B2 | inactive: -0.391
15 | B3 | active: 9.66
16 | B4 | inactive: -0.0397
17 | B5 | inactive: 0.336
18 | B6 | inactive: 0.199

same assay, conditions: antigen blocked with: nothing

Row | Binder | mRNA display binding score
19 | B1 | inactive: 0.137
20 | B2 | inactive: -0.539
21 | B3 | inactive: 4.99
22 | B4 | inactive: -0.0164
23 | B5 | inactive: 2.55
24 | B6 | inactive: 0.0792

target: Influenza A H3N2 A/Singapore/INFIMH-16-0019/2016 hemagglutinin ectodomain; assay: as above; settings: antigen blocked with: nothing
Method: as §1

Row | Binder | mRNA display binding score
25 | B1 | inactive: 0.309
26 | B2 | inactive: -0.0641
27 | B3 | inactive: -0.143
28 | B4 | inactive: 2.6e-05
29 | B5 | inactive: 1.2
30 | B6 | inactive: 0.136

target: Influenza A H5N1 A/Qinghai/1A/2005 hemagglutinin ectodomain; assay: as above; settings: antigen blocked with: 2 µM CR9114 IgG
Method: as §1

Row | Binder | mRNA display binding score
31 | B1 | inactive: -0.312
32 | B2 | inactive: -0.553
33 | B3 | inactive: 6.55
34 | B4 | inactive: 0.437
35 | B5 | inactive: 0.3
36 | B6 | inactive: 0.419

same assay, conditions: antigen blocked with: nothing

Row | Binder | mRNA display binding score
37 | B1 | inactive: -0.0913
38 | B2 | inactive: -0.341
39 | B3 | inactive: 9.69
40 | B4 | inactive: -0.113
41 | B5 | inactive: 0.883
42 | B6 | inactive: -0.0769

target: Influenza A H7N9 A/Shanghai/2/2013 hemagglutinin ectodomain; assay: as above; settings: antigen blocked with: 2 µM CR9114 IgG
Method: as §1

Row | Binder | mRNA display binding score
43 | B1 | inactive: -0.747
44 | B2 | inactive: -0.0286
45 | B3 | active: 26.8
46 | B4 | inactive: -0.47
47 | B5 | inactive: 1.16
48 | B6 | inactive: 0.183

same assay, conditions: antigen blocked with: nothing

Row | Binder | mRNA display binding score
49 | B1 | inactive: 0.334
50 | B2 | inactive: -0.418
51 | B3 | inactive: 0.148
52 | B4 | inactive: 0.331
53 | B5 | inactive: 2.13
54 | B6 | inactive: 0.0779

target: Influenza B/Lee/1940 hemagglutinin ectodomain; assay: as above; settings: antigen blocked with: 2 µM CR9114 IgG
Method: as §1

Row | Binder | mRNA display binding score
55 | B1 | inactive: -0.383
56 | B2 | inactive: -0.403
57 | B3 | inactive: -0.349
58 | B4 | inactive: -0.643
59 | B5 | inactive: -0.349
60 | B6 | inactive: -0.376

same assay, conditions: antigen blocked with: nothing

Row | Binder | mRNA display binding score
61 | B1 | inactive: -0.173
62 | B2 | inactive: -0.293
63 | B3 | inactive: 1.35
64 | B4 | inactive: -0.146
65 | B5 | inactive: -0.00628
66 | B6 | inactive: -0.222

target: Influenza B/Phuket/3073/2013 hemagglutinin ectodomain; assay: as above; settings: antigen blocked with: 2 µM CR9114 IgG
Method: as §1

Row | Binder | mRNA display binding score
67 | B1 | inactive: -0.256
68 | B2 | inactive: -0.142
69 | B3 | inactive: -0.348
70 | B4 | inactive: 0.154
71 | B5 | inactive: 0.344
72 | B6 | inactive: -0.118

same assay, conditions: antigen blocked with: nothing

Row | Binder | mRNA display binding score
73 | B1 | inactive: -0.0903
74 | B2 | inactive: -0.359
75 | B3 | inactive: -0.229
76 | B4 | inactive: -0.288
77 | B5 | inactive: 0.713
78 | B6 | inactive: -0.195
